Positions count from the first letter of the chain named. This is one part of the list.

B1: CAUUUGG (DNA:RNA)
RNA: GGGAGACCGGAAUUCAGAUUGUCCCAUUUGGUUAAAUCCCGUCGUAGCCACCA
DNA 1: CAATCTGAATTCCGGTCTCCC
DNA 2: TGGTGGCTACGACGGGATT
B2: UUUGAGA (DNA:RNA)
RNA: B1 RNA with C25U, A26U, U28G, U29A, G31A
DNA 1: CAATCTGAATTCCGGTCTCCC
DNA 2: TGGTGGCTACGACGGGATT
B3: AGUUCUG (DNA:RNA)
RNA: B1 RNA with C25A, A26G, U29C, G30U
DNA 1: CAATCTGAATTCCGGTCTCCC
DNA 2: TGGTGGCTACGACGGGATT
B4: GCGAGUU (DNA:RNA)
RNA: GGGAGACCGGAAUUCAGAUUGUCCGCGAGUUUUAAAUCCCGUCGUAGCCACCA
DNA 1: CAATCTGAATTCCGGTCTCCC
DNA 2: TGGTGGCTACGACGGGATT
B5: UUAUGUU (DNA:RNA)
RNA: B4 RNA with G25U, C26U, G27A, A28U
DNA 1: CAATCTGAATTCCGGTCTCCC
DNA 2: TGGTGGCTACGACGGGATT
B6: AGUUUAU (DNA:RNA)
RNA: B1 RNA with C25A, A26G, G30A, G31U
DNA 1: CAATCTGAATTCCGGTCTCCC
DNA 2: TGGTGGCTACGACGGGATT
B7: ACCGCUU (DNA:RNA)
RNA: B4 RNA with G25A, G27C, A28G, G29C
DNA 1: CAATCTGAATTCCGGTCTCCC
DNA 2: TGGTGGCTACGACGGGATT
B8: GGGAUCG (DNA:RNA)
RNA: B4 RNA with C26G, G29U, U30C, U31G
DNA 1: CAATCTGAATTCCGGTCTCCC
DNA 2: TGGTGGCTACGACGGGATT
B9: AUUGUGG (DNA:RNA)
RNA: B1 RNA with C25A, A26U, U28G
DNA 1: CAATCTGAATTCCGGTCTCCC
DNA 2: TGGTGGCTACGACGGGATT
B10: GAUGUAA (DNA:RNA)
RNA: B1 RNA with C25G, U28G, G30A, G31A
DNA 1: CAATCTGAATTCCGGTCTCCC
DNA 2: TGGTGGCTACGACGGGATT
B11: CAUUCUA (DNA:RNA)
RNA: B1 RNA with U29C, G30U, G31A
DNA 1: CAATCTGAATTCCGGTCTCCC
DNA 2: TGGTGGCTACGACGGGATT
B12: UAAUUUU (DNA:RNA)
RNA: B1 RNA with C25U, U27A, G30U, G31U
DNA 1: CAATCTGAATTCCGGTCTCCC
DNA 2: TGGTGGCTACGACGGGATT
B13: CCAGACA (DNA:RNA)
RNA: B1 RNA with A26C, U27A, U28G, U29A, G30C, G31A
DNA 1: CAATCTGAATTCCGGTCTCCC
DNA 2: TGGTGGCTACGACGGGATT
B14: GCUUGUG (DNA:RNA)
RNA: B4 RNA with G27U, A28U, U31G
DNA 1: CAATCTGAATTCCGGTCTCCC
DNA 2: TGGTGGCTACGACGGGATT
B15: CCUGCGA (DNA:RNA)
RNA: B1 RNA with A26C, U28G, U29C, G31A
DNA 1: CAATCTGAATTCCGGTCTCCC
DNA 2: TGGTGGCTACGACGGGATT
B16: AACCAAC (DNA:RNA)
RNA: B1 RNA with C25A, U27C, U28C, U29A, G30A, G31C
DNA 1: CAATCTGAATTCCGGTCTCCC
DNA 2: TGGTGGCTACGACGGGATT
B17: GUUAUCU (DNA:RNA)
RNA: B4 RNA with C26U, G27U, G29U, U30C
DNA 1: CAATCTGAATTCCGGTCTCCC
DNA 2: TGGTGGCTACGACGGGATT
B18: UAGGCCU (DNA:RNA)
RNA: B4 RNA with G25U, C26A, A28G, G29C, U30C
DNA 1: CAATCTGAATTCCGGTCTCCC
DNA 2: TGGTGGCTACGACGGGATT
B19: GGAGUAG (DNA:RNA)
RNA: B1 RNA with C25G, A26G, U27A, U28G, G30A
DNA 1: CAATCTGAATTCCGGTCTCCC
DNA 2: TGGTGGCTACGACGGGATT
B20: CAACACC (DNA:RNA)
RNA: B1 RNA with U27A, U28C, U29A, G30C, G31C
DNA 1: CAATCTGAATTCCGGTCTCCC
DNA 2: TGGTGGCTACGACGGGATT
B21: AAGUACC (DNA:RNA)
RNA: B1 RNA with C25A, U27G, U29A, G30C, G31C
DNA 1: CAATCTGAATTCCGGTCTCCC
DNA 2: TGGTGGCTACGACGGGATT
B22: CGAUGAA (DNA:RNA)
RNA: B1 RNA with A26G, U27A, U29G, G30A, G31A
DNA 1: CAATCTGAATTCCGGTCTCCC
DNA 2: TGGTGGCTACGACGGGATT
B23: AUUCUAA (DNA:RNA)
RNA: B1 RNA with C25A, A26U, U28C, G30A, G31A
DNA 1: CAATCTGAATTCCGGTCTCCC
DNA 2: TGGTGGCTACGACGGGATT
B24: GUGAAGU (DNA:RNA)
RNA: B4 RNA with C26U, G29A, U30G
DNA 1: CAATCTGAATTCCGGTCTCCC
DNA 2: TGGTGGCTACGACGGGATT
B25: UGCUAGA (DNA:RNA)
RNA: B1 RNA with C25U, A26G, U27C, U29A, G31A
DNA 1: CAATCTGAATTCCGGTCTCCC
DNA 2: TGGTGGCTACGACGGGATT
B26: CUGUAUG (DNA:RNA)
RNA: B1 RNA with A26U, U27G, U29A, G30U
DNA 1: CAATCTGAATTCCGGTCTCCC
DNA 2: TGGTGGCTACGACGGGATT
B27: GCUACUG (DNA:RNA)
RNA: B4 RNA with G27U, G29C, U31G
DNA 1: CAATCTGAATTCCGGTCTCCC
DNA 2: TGGTGGCTACGACGGGATT
B28: UUUAGAC (DNA:RNA)
RNA: B4 RNA with G25U, C26U, G27U, U30A, U31C
DNA 1: CAATCTGAATTCCGGTCTCCC
DNA 2: TGGTGGCTACGACGGGATT
B29: UGAGAGG (DNA:RNA)
RNA: B1 RNA with C25U, A26G, U27A, U28G, U29A
DNA 1: CAATCTGAATTCCGGTCTCCC
DNA 2: TGGTGGCTACGACGGGATT
B30: AAUCGCC (DNA:RNA)
RNA: B1 RNA with C25A, U28C, U29G, G30C, G31C
DNA 1: CAATCTGAATTCCGGTCTCCC
DNA 2: TGGTGGCTACGACGGGATT
B31: GCCUAAC (DNA:RNA)
RNA: B4 RNA with G27C, A28U, G29A, U30A, U31C
DNA 1: CAATCTGAATTCCGGTCTCCC
DNA 2: TGGTGGCTACGACGGGATT

In this test the target is T1, RBFOX1 RRM (Homo sapiens, UniProt Q9NWB1 109-208).
T1 sequence: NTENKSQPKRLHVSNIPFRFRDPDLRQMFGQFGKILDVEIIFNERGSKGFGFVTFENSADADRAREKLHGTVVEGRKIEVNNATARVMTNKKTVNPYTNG
The test can be described thus: EMSA; HiTS-Eq, 1 nM pool, 10 min; buffer printed only for the single-RNA assays: 10 mM Tris pH 7.5, 150 mM NaCl, 3.4 mM EDTA, 0.001% NP-40, 30 C. To be noted: tags: His6 N-terminal (pET28a); label: 5' 32P. In a few lines:
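Purified RbFox RRM (wild type or mutant) was equilibrated for 10 min in 50 µL with 1 nM of a 5′-radiolabelled pool of RNA with 7 randomized nucleotides, its flanks annealed to DNA oligonucleotides, across increasing protein concentrations. Free RNA was separated by 8% native PAGE, excised, reverse-transcribed, PCR-barcoded and sequenced on an Illumina HiSeq 2500. Relative association constants came from read-count changes of each variant against the control reaction, normalised to the cognate motif.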
Take B1: the binding signal was 0.014 KA relative to UGCAUGU.
Under B2 stands 0.0149 KA relative to UGCAUGU; under B3, 0.0155 KA relative to UGCAUGU; under B4, 0.0199 KA relative to UGCAUGU.
Under B5 stands 0.0135 KA relative to UGCAUGU; under B6, 0.00376 KA relative to UGCAUGU.
Take B7: the binding signal was 0.0029 KA relative to UGCAUGU.
Consider B8, for which the binding signal was 0.0449 KA relative to UGCAUGU.
Next, B9: 0.00992 KA relative to UGCAUGU; B10: 0.0112 KA relative to UGCAUGU.
Take B11: the binding signal is 0.00209 KA relative to UGCAUGU.
Next, B12: 0.0151 KA relative to UGCAUGU; B13: 0.00629 KA relative to UGCAUGU.
As for B14, the binding signal is 0.0418 KA relative to UGCAUGU.
Next, B15: 0.0128 KA relative to UGCAUGU; B16: 0.000641 KA relative to UGCAUGU.
As to B17, the binding signal is 0.0141 KA relative to UGCAUGU.
Regarding B18, the binding signal is 0.0167 KA relative to UGCAUGU.
On to B19, for which the binding signal is 0.0152 KA relative to UGCAUGU.
Next, B20: 0.00238 KA relative to UGCAUGU; B21: 0.00279 KA relative to UGCAUGU.
Under B22 stands 0.0112 KA relative to UGCAUGU; under B23, 0.00399 KA relative to UGCAUGU; under B24, 0.0152 KA relative to UGCAUGU.
Under B25 stands 0.0242 KA relative to UGCAUGU.
With B26, the binding signal was 0.0231 KA relative to UGCAUGU.
Next, B27: 0.0197 KA relative to UGCAUGU; B28: 0.0117 KA relative to UGCAUGU; B29: 0.0138 KA relative to UGCAUGU.
For the molecule B30, the binding signal was 0.004 KA relative to UGCAUGU.
Under B31 stands 0.00414 KA relative to UGCAUGU.

These data come from publication PMC9911399, “Two distinct binding modes provide the RNA-binding protein RbFox with extraordinary sequence specificity”.
